No constants are given. Whether binding was seen depends on the method and setting. In cells and extracts the contact can be indirect. Some results given as binding are weak or reduced against the parent protein; the word gives no strength. Sequences can lack the tags named with a protein.

Protein sequences, listed by entry. Tags and fused reporters are not part of them.
UniProt P16220: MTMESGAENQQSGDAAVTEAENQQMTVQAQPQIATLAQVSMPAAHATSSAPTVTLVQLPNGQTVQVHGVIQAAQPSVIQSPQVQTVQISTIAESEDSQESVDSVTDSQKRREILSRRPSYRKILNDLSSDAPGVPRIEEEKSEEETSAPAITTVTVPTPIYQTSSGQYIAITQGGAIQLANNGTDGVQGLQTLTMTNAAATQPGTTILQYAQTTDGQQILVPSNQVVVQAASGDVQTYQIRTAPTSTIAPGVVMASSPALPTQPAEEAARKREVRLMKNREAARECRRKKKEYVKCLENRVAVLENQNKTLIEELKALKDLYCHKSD
UniProt Q00613: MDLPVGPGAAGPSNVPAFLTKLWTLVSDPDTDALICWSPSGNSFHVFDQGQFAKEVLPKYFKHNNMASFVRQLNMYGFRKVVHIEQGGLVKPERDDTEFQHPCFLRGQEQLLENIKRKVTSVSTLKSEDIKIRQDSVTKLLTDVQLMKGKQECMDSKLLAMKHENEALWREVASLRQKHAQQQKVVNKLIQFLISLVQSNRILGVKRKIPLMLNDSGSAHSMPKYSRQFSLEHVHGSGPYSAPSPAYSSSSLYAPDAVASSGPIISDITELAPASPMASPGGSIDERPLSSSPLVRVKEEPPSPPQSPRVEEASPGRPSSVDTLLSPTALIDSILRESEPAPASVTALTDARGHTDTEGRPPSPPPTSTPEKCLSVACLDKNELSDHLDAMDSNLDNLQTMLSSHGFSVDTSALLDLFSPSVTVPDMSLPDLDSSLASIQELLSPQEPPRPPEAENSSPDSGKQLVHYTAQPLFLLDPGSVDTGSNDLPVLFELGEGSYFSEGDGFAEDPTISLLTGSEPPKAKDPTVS
UniProt Q9UJU2: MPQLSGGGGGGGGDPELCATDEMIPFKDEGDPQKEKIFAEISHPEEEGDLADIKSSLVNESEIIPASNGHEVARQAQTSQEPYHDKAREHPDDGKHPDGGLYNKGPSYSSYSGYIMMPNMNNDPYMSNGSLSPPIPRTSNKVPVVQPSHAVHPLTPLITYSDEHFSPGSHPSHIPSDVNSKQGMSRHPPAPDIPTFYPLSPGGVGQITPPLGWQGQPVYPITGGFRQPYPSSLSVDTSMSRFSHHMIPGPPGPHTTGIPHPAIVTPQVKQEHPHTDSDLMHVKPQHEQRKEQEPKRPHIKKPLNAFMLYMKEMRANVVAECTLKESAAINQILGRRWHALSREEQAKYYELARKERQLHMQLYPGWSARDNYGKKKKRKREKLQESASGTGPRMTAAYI
UniProt O95863: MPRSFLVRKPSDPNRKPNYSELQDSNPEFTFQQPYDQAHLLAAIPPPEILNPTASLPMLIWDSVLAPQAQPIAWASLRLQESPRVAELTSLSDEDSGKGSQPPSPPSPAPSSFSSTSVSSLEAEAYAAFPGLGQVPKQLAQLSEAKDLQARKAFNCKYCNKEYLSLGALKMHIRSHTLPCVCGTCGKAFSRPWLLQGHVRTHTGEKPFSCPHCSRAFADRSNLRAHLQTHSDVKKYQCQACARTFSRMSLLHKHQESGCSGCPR

Experiment [1] deals with T1, Metastasis-associated with colon cancer protein 1 (MACC1), FLAG-tagged (human) (UniProt Q6ZN28).
T1 sequence: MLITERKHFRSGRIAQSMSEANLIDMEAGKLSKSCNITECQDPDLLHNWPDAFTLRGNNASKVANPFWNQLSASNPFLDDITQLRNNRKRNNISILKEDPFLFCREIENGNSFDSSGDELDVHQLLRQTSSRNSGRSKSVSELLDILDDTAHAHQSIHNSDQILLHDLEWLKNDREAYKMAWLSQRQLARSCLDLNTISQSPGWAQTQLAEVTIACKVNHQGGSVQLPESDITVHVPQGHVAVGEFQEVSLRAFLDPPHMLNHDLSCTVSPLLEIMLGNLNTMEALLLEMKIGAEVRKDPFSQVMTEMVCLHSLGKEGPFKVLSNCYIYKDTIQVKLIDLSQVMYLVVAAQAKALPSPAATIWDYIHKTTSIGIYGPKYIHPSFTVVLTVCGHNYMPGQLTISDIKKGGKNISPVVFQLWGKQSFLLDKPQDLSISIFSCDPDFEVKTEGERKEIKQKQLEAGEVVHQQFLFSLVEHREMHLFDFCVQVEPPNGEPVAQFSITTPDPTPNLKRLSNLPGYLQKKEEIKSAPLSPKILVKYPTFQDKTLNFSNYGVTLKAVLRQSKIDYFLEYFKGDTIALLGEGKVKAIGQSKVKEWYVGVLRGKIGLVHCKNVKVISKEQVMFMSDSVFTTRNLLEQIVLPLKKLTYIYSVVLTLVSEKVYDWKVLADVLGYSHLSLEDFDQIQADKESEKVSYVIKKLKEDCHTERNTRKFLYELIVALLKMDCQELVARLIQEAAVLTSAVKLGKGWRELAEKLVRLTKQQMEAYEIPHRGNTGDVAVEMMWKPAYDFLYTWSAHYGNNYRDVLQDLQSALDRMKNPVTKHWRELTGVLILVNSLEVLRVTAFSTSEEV
The experiment is described as follows: co-IP; HA-tagged transcription factor and FLAG-tagged MACC1 co-expressed in HEK293T cells; lysis in EBC buffer (50 mM Tris pH 7.5, 120 mM NaCl, 0.5% NP-40); anti-Flag or anti-HA beads 3-4 h at 4 °C; three washes in NETN buffer (100 mM NaCl, 20 mM Tris pH 8.0, 1 mM EDTA, 0.5% NP-40); immunoblot with anti-FLAG and anti-HA. (In general: In western blotting, separated proteins are transferred to a membrane and probed.)

For experiment [2], the target named is T1, Metastasis-associated with colon cancer protein 1 (MACC1), FLAG-tagged (human). Briefly: co-IP; PANC-1 and SUIT-2 cells transfected with the indicated plasmids; immunoprecipitated with anti-Flag or anti-HA beads; immunoblot with anti-FLAG and anti-HA.

With “CREB1, HA-tagged (from UniProt P16220 1-327)”, the binding result in experiment [1] was “no binding”.
“HSF1, HA-tagged (from UniProt Q00613 1-529)”: the binding result in experiment [1] is “no binding”.
For “LEF1, HA-tagged (from UniProt Q9UJU2 1-399)”, in experiment [1], the binding entry is “no binding”.
Consider “snail family transcriptional repressor 1 (SNAI1), HA-tagged (from UniProt O95863 1-264)”, for which the binding result in experiment [2] and in experiment [1] was “binds” in each case.

B1: ATF3, HA-tagged (protein, UniProt P18847 1-181)
chain: MMLQHPGQVSASEVSASAIVPCLSPPGSLVFEDFANLTPFVKEELRFAIQNKHLCHRMSSALESVTVSDRPLGVSITKAEVAPEEDERKKRRRERNKIAAAKCRNKKKEKTECLQKESEKLESVNAELKAQIEELKNEKQHLIYMLNLHRPTCIVRAQNGRTPEDERNLFIQQIKEGTLQS
With B1, in experiment [1], the binding result is recorded as “no binding”.

The values above are taken from paper PMC9636131.
